# Source: the supplement of paper PMC12217912
# The other results are listed elsewhere or left out. Sequences were assembled here from the parent chain. Values near 0.05 are background.
# B1: TEV protease; numbered along this chain (parent)
# chain: MGESLFKGPRDYNPISSSICHLTNESDGHTTSLYGIGFGPFIITNKHLFRRNNGTLVVQSLHGVFKVKDTTTLQQHLVDGRDMIIIRMPKDFPPFPQKLKFREPQREERICLVTTNFQTKSMSSMVSDTSCTFPSGDGIFWKHWIQTKDGQCGSPLVSTRDGFIVGIHSASNFTNTNNYFTSVPKNFMELLTNQEAQQWVSGWRLNADSVLWGGHKVFMVKPEEPFQPVKEATQL
# Variants of: B1
# Test: raw area under fraction-flipped curve 0-4 h after induction (AUC4h, not background-subtracted), DNA-recorder readout of cleavage of the substrate (dimensionless); higher = more cleavage of the substrate by the protease variant
# Conditions: temperature: 34 °C; time window: 0-4 h after rhamnose induction
# Protocol: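 In vivo DNA recorder in E. coli TOP10(DE3) ΔrhaA at 34 °C. Each TEVp single-site mutant (parent TEVp 0) is paired with a single-site variant of the 7-mer TEVs (canonical ENLYFQ|S). The substrate sits between flexible linkers in a Bxb1-sfGFP-TEVs-SsrA fusion, so cleavage stabilises Bxb1 and speeds flipping of a recombination array, read by NGS. The value is the raw area under the fraction-flipped curve over 0-4 h after rhamnose induction (AUC4h), with ≥20 reads per time point. It is not background-subtracted; inactive controls average about 0.047.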
# 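Also: Bxb1 expression induced with 0.2% (w/v) L-rhamnose at OD600 near 0.5, cultures sampled hourly, flipped fraction per protease–substrate barcode pair counted by paired-end Illumina sequencing.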
Variant,area with substrate EALYFQS,area with substrate EDLYFQS,area with substrate EELYFQS,area with substrate EFLYFQS,area with substrate EGLYFQS,area with substrate EHLYFQS,area with substrate EILYFQS,area with substrate ELLYFQS,area with substrate EMLYFQS,area with substrate EPLYFQS,area with substrate EQLYFQS,area with substrate ERLYFQS,area with substrate ESLYFQS,area with substrate EVLYFQS,area with substrate EWLYFQS,area with substrate ETLYFQS,area with substrate ECLYFQS,area with substrate EKLYFQS,area with substrate EYLYFQS
N53H,0.0904,0.123,0.114,0.0759,0.0747,0.0938,0.0709,0.0847,0.0962,0.0938,0.112,0.0795,0.0797,0.0887,0.085,,,,
N53P,0.0873,,,0.057,0.0715,0.0678,,,,,0.0874,0.0763,,,0.117,0.0772,,,
K7M,0.14,0.129,,0.0918,,,,0.0988,0.112,,0.141,,,0.0979,,,0.127,,
K7C,0.12,0.15,,,,,,0.094,0.131,0.13,,,0.0895,0.0829,,0.129,0.0959,0.0804,
D27I,0.107,,0.0948,,0.0633,0.0891,0.0467,,0.0858,0.0725,,0.101,0.0763,0.0915,0.0627,0.103,,0.0798,0.0713
D27H,0.123,,0.116,,0.102,,,,0.114,,,0.111,0.0416,,,0.0931,0.0869,,
G35F,0.0465,0.0437,0.0428,,,0.0458,0.0084,,,,,0.0504,0.0269,,,,,0.0432,
R10A,0.128,,,0.0848,0.0764,,0.0945,,0.0911,,,0.0925,0.105,0.13,0.102,0.0829,,0.0958,0.0598
T55R,0.142,0.0867,,,0.0786,0.0835,,0.101,0.098,,,,0.104,,0.0964,0.11,,,0.106
R50T,0.138,,0.172,,0.0857,0.131,0.108,0.113,,0.146,0.166,0.168,0.115,0.111,0.104,0.114,0.0988,0.13,
R50S,0.141,,0.133,,0.0875,0.0995,0.0992,,,,0.0941,0.099,0.121,0.098,,,0.106,0.0782,0.0822
L56N,0.0375,0.0408,0.0393,0.0837,,0.041,0.0432,,0.0474,0.043,0.0494,,,0.0464,,,0.0473,0.027,
K46G,0.0886,0.109,0.106,,0.065,0.0845,0.0869,,0.0794,0.0936,0.0983,0.0806,0.0798,0.0862,0.085,0.0732,0.0954,0.0932,0.0787
F65C,0.14,0.133,,,,0.0655,,0.0804,0.0944,,0.0969,,0.122,0.137,0.0914,,0.11,,
F65K,0.131,,,,0.0561,,0.104,,0.0773,0.126,0.141,0.0962,0.0901,,0.0963,0.0994,0.104,0.129,
